In US20250289788A1, “HALOALKYL SULFONANILIDE COMPOUND AND HERBICIDE CONTAINING THE SAME” (SDS BIOTECH K.K., priority 2022, published 2025):
Some of these results come from one statement about several compounds together. At least one compound was matched to its structure with a doubt left.

Columns and labels:
Test in all cases: Test Example 1: herbicidal effect test using paddy field flooding treatment
Type in all cases: in vivo
Settings in all cases: water surface application, 21 days after treatment
[1] = tested on: Schoenoplectiella juncoides (SJ)
Protocol: <Test Example 1> Herbicidal Effect Test Using Paddy Field Flooding Treatment
After each 40-cm^2 plastic cup was loaded with puddled paddy field soil, seeds of each of the following species were sown and grown in a greenhouse: Echinochloa crus-galli var. oryzicola (EC), Schoenoplectiella juncoides (SJ), Monochoria vaginalis (MV), or Ammannia multiflora (AM). After plants were grown for 14 days, water was flooded to a depth of 3 cm, and a 10% wettable powder, which had been adjusted according to Formulation Example 1, was diluted with distilled water and applied dropwise to the water surface. The amount applied was 1000, 500, 250, 125, 63, 31, or 16 g of active ingredient per hectare. The test was conducted in two series. Herbicidal efficacy (degree (%) of suppression of growth of terrestrial part: 100 (complete death) to 0 (no action)) was investigated at 21 days after the treatment.

[2] = tested on: Monochoria vaginalis (MV)
Ammannia multiflora (AM) = tested on: Ammannia multiflora (AM)

Measured: herbicidal efficacy (degree (%) of suppression of growth of terrestrial part)

O=C1c2ccc(I)cc2CCN1Cc1ccccc1NS(=O)(=O)C(F)(F)F [Compound 3-38]
≥ 80%: [1]; dose 500 g a.i./ha | [2]; dose 500 g a.i./ha | Ammannia multiflora (AM); dose 125 g a.i./ha

Cc1ccc2c(c1)CN(Cc1ccccc1NS(=O)(=O)C(F)(F)F)C2=O [Compound 2-41]
≥ 80%: [1]; dose 125 g a.i./ha | [2]; dose 125 g a.i./ha | Ammannia multiflora (AM); dose 125 g a.i./ha

O=C1c2c(cccc2OC(F)F)CCN1Cc1ccccc1NS(=O)(=O)C(F)(F)F [Compound 3-14]
≥ 80%: [1]; dose 500 g a.i./ha | [2]; dose 500 g a.i./ha | Ammannia multiflora (AM); dose 125 g a.i./ha

O=C1c2ccc(Cl)cc2CCN1Cc1ccccc1NS(=O)(=O)C(F)(F)F [Compound 3-36]
≥ 80%: [1]; dose 250 g a.i./ha | [2]; dose 125 g a.i./ha | Ammannia multiflora (AM); dose 63 g a.i./ha

O=C1c2c(Br)cccc2CCN1Cc1ccccc1NS(=O)(=O)C(F)(F)F [Compound 3-4]
≥ 80%: [1]; dose 63 g a.i./ha | [2]; dose 500 g a.i./ha | Ammannia multiflora (AM); dose 16 g a.i./ha

O=C1c2c(F)ccc(Br)c2CCN1Cc1ccccc1NS(=O)(=O)C(F)(F)F [Compound 3-65]
≥ 80%: [1]; dose 250 g a.i./ha | [2]; dose 500 g a.i./ha | Ammannia multiflora (AM); dose 63 g a.i./ha

N#CCN(c1ccccc1CN1CCc2c(F)ccc(F)c2C1=O)S(=O)(=O)C(F)(F)F [Compound 3-94]
≥ 80%: [1]; dose 125 g a.i./ha | [2]; dose 500 g a.i./ha | Ammannia multiflora (AM); dose 125 g a.i./ha

C#CCOc1cccc2c1CCN(Cc1ccccc1NS(=O)(=O)C(F)(F)F)C2=O [Compound 3-52]
≥ 80%: [1]; dose 250 g a.i./ha | [2]; dose 250 g a.i./ha | Ammannia multiflora (AM); dose 63 g a.i./ha

O=C1c2sccc2CN1Cc1ccccc1NS(=O)(=O)C(F)(F)F [Compound 6-1, N-[2-(N-trifluoromethanesulfonyl)aminobenzyl]-4,5-dihydro-6H-thieno[2,3-c]pyrrol-6-one]
≥ 80%: [1]; dose 125 g a.i./ha | [2]; dose 125 g a.i./ha | Ammannia multiflora (AM); dose 63 g a.i./ha

O=C1c2ccccc2N1Cc1ccccc1NS(=O)(=O)C(F)(F)F [Compound 1-1, N-[2-(N-trifluoromethanesulfonyl)aminobenzyl]-7-azabicyclo[4.2.0]octa-1(6),2,4-trien-8-one]
≥ 80%: [1]; dose 125 g a.i./ha | [2]; dose 250 g a.i./ha | Ammannia multiflora (AM); dose 125 g a.i./ha

O=C1c2ccccc2CCN1Cc1cccc(Cl)c1NS(=O)(=O)C(F)(F)F [Compound 4-1]
≥ 80%: [1]; dose 125 g a.i./ha | [2]; dose 500 g a.i./ha | Ammannia multiflora (AM); dose 63 g a.i./ha

CCOC(=O)N(c1ccccc1CN1CC(C)(C)c2ccccc2C1=O)S(=O)(=O)C(F)(F)F [Compound 7-16]
≥ 80%: [1]; dose 125 g a.i./ha | [2]; dose 250 g a.i./ha | Ammannia multiflora (AM); dose 125 g a.i./ha

Cn1nc(Br)c2c1CCN(Cc1ccccc1NS(=O)(=O)C(F)(F)F)C2=O [Compound 6-13]
≥ 80%: [1]; dose 500 g a.i./ha | [2]; dose 125 g a.i./ha | Ammannia multiflora (AM); dose 63 g a.i./ha

O=C1c2c(F)ccc(F)c2CCN1Cc1cccc(F)c1NS(=O)(=O)C(F)(F)F [Compound 4-12]
≥ 80%: [1]; dose 500 g a.i./ha | [2]; dose 125 g a.i./ha | Ammannia multiflora (AM); dose 16 g a.i./ha

CSCCC(=O)N(c1ccccc1CN1CCc2c(F)ccc(F)c2C1=O)S(=O)(=O)C(F)(F)F [Compound 3-137]
≥ 80%: [1]; dose 500 g a.i./ha | [2]; dose 63 g a.i./ha | Ammannia multiflora (AM); dose 16 g a.i./ha

CC1(C)CC1C(=O)N(c1ccccc1CN1CCc2c(F)ccc(F)c2C1=O)S(=O)(=O)C(F)(F)F (stereo not drawn) [Compound 3-110]
≥ 80%: [1]; dose 250 g a.i./ha | [2]; dose 250 g a.i./ha | Ammannia multiflora (AM); dose 16 g a.i./ha

Cc1cccc2c1C(=O)N(Cc1ccccc1NS(=O)(=O)C(F)(F)F)CC2 [Compound 3-6]
≥ 80%: [1]; dose 250 g a.i./ha | [2]; dose 63 g a.i./ha | Ammannia multiflora (AM); dose 63 g a.i./ha

CCOC(=O)N(c1ccccc1CN1CCc2c(C)cccc2C1=O)S(=O)(=O)C(F)(F)F [Compound 3-145]
≥ 80%: [1]; dose 125 g a.i./ha | [2]; dose 63 g a.i./ha | Ammannia multiflora (AM); dose 63 g a.i./ha

CCOC(=O)N(c1ccccc1CN1Cc2cc(Br)ccc2C1=O)S(=O)(=O)C(F)(F)F [Compound 2-57]
≥ 80%: [1]; dose 500 g a.i./ha | [2]; dose 250 g a.i./ha | Ammannia multiflora (AM); dose 125 g a.i./ha

O=C1c2c(F)ccc(F)c2CCN1Cc1c(F)cccc1NS(=O)(=O)C(F)(F)F [Compound 4-21]
≥ 80%: [1]; dose 500 g a.i./ha | [2]; dose 125 g a.i./ha | Ammannia multiflora (AM); dose 16 g a.i./ha

O=C1c2ccccc2CCN1Cc1c(Cl)cccc1NS(=O)(=O)C(F)(F)F [Compound 4-8]
≥ 80%: [1]; dose 500 g a.i./ha | [2]; dose 63 g a.i./ha | Ammannia multiflora (AM); dose 63 g a.i./ha

CC(C)(C)CC(=O)N(c1ccccc1CN1CCc2c(F)ccc(F)c2C1=O)S(=O)(=O)C(F)(F)F [Compound 3-102]
≥ 80%: [1]; dose 500 g a.i./ha | [2]; dose 63 g a.i./ha | Ammannia multiflora (AM); dose 16 g a.i./ha

O=C1c2c(ccc3ncsc23)CCN1Cc1ccccc1NS(=O)(=O)C(F)(F)F [Compound 3-88]
≥ 80%: [1]; dose 125 g a.i./ha | [2]; dose 500 g a.i./ha | Ammannia multiflora (AM); dose 63 g a.i./ha

CS(=O)(=O)c1ccc(F)c2c1C(=O)N(Cc1ccccc1NS(=O)(=O)C(F)(F)F)CC2 [Compound 3-77]
≥ 80%: [1]; dose 125 g a.i./ha | [2]; dose 250 g a.i./ha | Ammannia multiflora (AM); dose 500 g a.i./ha

O=C1c2ccccc2CCN1Cc1cc(Cl)cc(Cl)c1NS(=O)(=O)C(F)(F)F [Compound 4-9]
≥ 80%: [1]; dose 500 g a.i./ha | [2]; dose 500 g a.i./ha | Ammannia multiflora (AM); dose 250 g a.i./ha

COc1cccc2c1C(=O)N(Cc1ccccc1NS(=O)(=O)C(F)(F)F)CC2 [Compound 3-12]
≥ 80%: [1]; dose 125 g a.i./ha | [2]; dose 125 g a.i./ha | Ammannia multiflora (AM); dose 125 g a.i./ha

COc1ccc(CN(c2ccccc2CN2CCc3c(F)ccc(F)c3C2=O)S(=O)(=O)C(F)(F)F)cc1 [Compound 3-92]
≥ 80%: [1]; dose 250 g a.i./ha | [2]; dose 500 g a.i./ha | Ammannia multiflora (AM); dose 63 g a.i./ha

O=C1c2ccc(Cl)cc2CCN1Cc1cc(Cl)ccc1NS(=O)(=O)C(F)(F)F [Compound 4-11]
≥ 80%: [1]; dose 500 g a.i./ha | [2]; dose 250 g a.i./ha | Ammannia multiflora (AM); dose 63 g a.i./ha

O=C1c2ccsc2CCN1Cc1ccccc1NS(=O)(=O)C(F)(F)F [Compound 6-6]
≥ 80%: [1]; dose 500 g a.i./ha | [2]; dose 125 g a.i./ha | Ammannia multiflora (AM); dose 63 g a.i./ha

O=C1c2c(F)ccc(F)c2CCN1Cc1ccccc1N(C(=O)OC1CCSCC1)S(=O)(=O)C(F)(F)F [Compound 3-209]
≥ 80%: [1]; dose 250 g a.i./ha | [2]; dose 250 g a.i./ha | Ammannia multiflora (AM); dose 31 g a.i./ha

CC1CN(Cc2ccccc2NS(=O)(=O)C(F)(F)F)C(=O)c2ccccc21 (racemic) [Compound 7-8]
≥ 80%: [1]; dose 63 g a.i./ha | [2]; dose 250 g a.i./ha | Ammannia multiflora (AM); dose 63 g a.i./ha

C#CCN(c1ccccc1CN1CCc2c(F)ccc(F)c2C1=O)S(=O)(=O)C(F)(F)F [Compound 3-91]
≥ 80%: [1]; dose 500 g a.i./ha | [2]; dose 250 g a.i./ha | Ammannia multiflora (AM); dose 16 g a.i./ha
